{
  "source": "the supplement of paper PMC4166925",
  "note": "± gives the standard deviation of the averaged measurements. Whole data set: some 33,000 sequences, median “E-score (dimensionless, -0.5 to 0.5)” near -0.046, cut for the highest 2% near 0.36. The list shows a part of the results.",
  "data": [
    {"tested_on": "T1, SpTbr T-box DNA-binding domain (GST fusion)", "T1 sequence": "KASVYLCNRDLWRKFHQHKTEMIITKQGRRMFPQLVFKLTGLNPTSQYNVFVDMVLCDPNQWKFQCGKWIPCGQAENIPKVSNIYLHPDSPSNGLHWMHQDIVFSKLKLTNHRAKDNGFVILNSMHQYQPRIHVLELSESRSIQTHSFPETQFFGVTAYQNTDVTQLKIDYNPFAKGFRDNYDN", "assay": "PBM E-score of 8-mer (E-score (dimensionless, -0.5 to 0.5)); Tbr is Tbrain of the sea star Patiria miniata (Pm) or the sea urchin Strongylocentrotus purpuratus (Sp); higher = stronger binding preference; most listed sequences are background and not binding sites", "settings": "the construct has about 5 more residues each side", "method_in_brief": "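GST-fused Tbr T-box DNA-binding domains (the whole T-box plus about five flanking residues) were expressed in BL21 E. coli at 20 °C and purified by glutathione affinity chromatography. Universal Agilent oligonucleotide arrays were made double-stranded by primer extension, incubated with 200 nM protein in PBS (pH 7.5), then scanned and quantified. Every ungapped 8-mer was scored from probe intensities. The Universal PBM Analysis Suite gave each word an enrichment E-score, averaged over duplicate arrays.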", "values": [
      {"sequence": "AGCAACAG", "PBM E-score of 8-mer": "-0.0121 ± 0.0042"},
      {"sequence": "GCTCCGGA", "PBM E-score of 8-mer": "-0.139 ± 0.0069"},
      {"sequence": "ACGGTCTA", "PBM E-score of 8-mer": "-0.21 ± 0.035"},
      {"sequence": "ACGTATTG", "PBM E-score of 8-mer": "-0.135 ± 0.026"},
      {"sequence": "GCACGGAC", "PBM E-score of 8-mer": "0.0505 ± 0.0086"},
      {"sequence": "TGCTTACA", "PBM E-score of 8-mer": "0.1 ± 0.0065"},
      {"sequence": "AGACCCCA", "PBM E-score of 8-mer": "-0.186 ± 0.045"},
      {"sequence": "ACCGGAGG", "PBM E-score of 8-mer": "-0.0804 ± 0.00089"},
      {"sequence": "ATGAGACG", "PBM E-score of 8-mer": "-0.00405 ± 0.013"},
      {"sequence": "TGAGCCCA", "PBM E-score of 8-mer": "-0.101 ± 0.072"},
      {"sequence": "ACAGAGGA", "PBM E-score of 8-mer": "-0.119 ± 0.11"},
      {"sequence": "ACGGATCG", "PBM E-score of 8-mer": "-0.0367 ± 0.057"},
      {"sequence": "AGGATCGG", "PBM E-score of 8-mer": "-0.176 ± 0.02"},
      {"sequence": "AGACCCGC", "PBM E-score of 8-mer": "0.0939 ± 0.12"},
      {"sequence": "GATCAGCA", "PBM E-score of 8-mer": "0.114 ± 0.08"},
      {"sequence": "TAAATCAA", "PBM E-score of 8-mer": "-0.119 ± 0.082"},
      {"sequence": "GAAATCAA", "PBM E-score of 8-mer": "0.0239 ± 0.12"},
      {"sequence": "CAGTTCGC", "PBM E-score of 8-mer": "0.287 ± 0.028"},
      {"sequence": "AATAAAGC", "PBM E-score of 8-mer": "-0.046 ± 0.03"},
      {"sequence": "CATATTGG", "PBM E-score of 8-mer": "0.0356 ± 0.017"},
      {"sequence": "CGATAGAA", "PBM E-score of 8-mer": "-0.106 ± 0.026"},
      {"sequence": "CTTGGCGC", "PBM E-score of 8-mer": "0.281 ± 0.0057"},
      {"sequence": "AAGTTGGG", "PBM E-score of 8-mer": "-0.269 ± 0.078"},
      {"sequence": "CTCCGAGA", "PBM E-score of 8-mer": "-0.234 ± 0.027"},
      {"sequence": "TACCTCTA", "PBM E-score of 8-mer": "-0.164 ± 0.002"},
      {"sequence": "ACGACGGA", "PBM E-score of 8-mer": "-0.0459 ± 0.049"},
      {"sequence": "CAGGGAGA", "PBM E-score of 8-mer": "-0.135 ± 0.0097"},
      {"sequence": "GGAAACTA", "PBM E-score of 8-mer": "-0.15 ± 0.00099"},
      {"sequence": "ATTTCGCG", "PBM E-score of 8-mer": "0.389 ± 0.016"},
      {"sequence": "AACTCTGC", "PBM E-score of 8-mer": "0.164 ± 0.011"},
      {"sequence": "CGAGGCAG", "PBM E-score of 8-mer": "0.00575 ± 0.014"},
      {"sequence": "ATTTCAAC", "PBM E-score of 8-mer": "0.0766 ± 0.074"},
      {"sequence": "TCATGCGA", "PBM E-score of 8-mer": "0.133 ± 0.0089"},
      {"sequence": "GAAAACTC", "PBM E-score of 8-mer": "-0.168 ± 0.0071"},
      {"sequence": "ATTCGTTC", "PBM E-score of 8-mer": "-0.0491 ± 0.048"},
      {"sequence": "ATCTGAGC", "PBM E-score of 8-mer": "-0.133 ± 0.0053"},
      {"sequence": "CTGAGATC", "PBM E-score of 8-mer": "0.0205 ± 0.036"},
      {"sequence": "AGAAGGAC", "PBM E-score of 8-mer": "-0.209 ± 0.038"},
      {"sequence": "GTTCATTA", "PBM E-score of 8-mer": "-0.205 ± 0.056"},
      {"sequence": "GTTTAGAA", "PBM E-score of 8-mer": "-0.164 ± 0.028"},
      {"sequence": "CAGTCTTA", "PBM E-score of 8-mer": "-0.259 ± 0.01"},
      {"sequence": "GGCCCGCC", "PBM E-score of 8-mer": "-0.0359 ± 0.049"},
      {"sequence": "GAAAATAA", "PBM E-score of 8-mer": "-0.0911 ± 0.059"},
      {"sequence": "CATTGCTC", "PBM E-score of 8-mer": "-0.166 ± 0.016"},
      {"sequence": "GAGACCCA", "PBM E-score of 8-mer": "-0.0603 ± 0.078"},
      {"sequence": "ACCAGGTG", "PBM E-score of 8-mer": "0.3638 ± 0.0033"},
      {"sequence": "AACTAAGC", "PBM E-score of 8-mer": "-0.268 ± 0.004"},
      {"sequence": "CTGGCGAA", "PBM E-score of 8-mer": "0.0471 ± 0.05"},
      {"sequence": "CCACAGGG", "PBM E-score of 8-mer": "0.041 ± 0.013"},
      {"sequence": "AAGTCGAG", "PBM E-score of 8-mer": "0.109 ± 0.066"},
      {"sequence": "AGAAGGTA", "PBM E-score of 8-mer": "-0.167 ± 0.031"},
      {"sequence": "AGTTGAGC", "PBM E-score of 8-mer": "-0.143 ± 0.097"},
      {"sequence": "CGTGGTCC", "PBM E-score of 8-mer": "-0.204 ± 0.045"},
      {"sequence": "CCTATGAC", "PBM E-score of 8-mer": "-0.049 ± 0.0007"},
      {"sequence": "AAAATGCT", "PBM E-score of 8-mer": "-0.27 ± 0.019"},
      {"sequence": "ATCAGTGA", "PBM E-score of 8-mer": "0.139 ± 0.013"},
      {"sequence": "GGAGTTAA", "PBM E-score of 8-mer": "-0.088 ± 0.11"},
      {"sequence": "CGATGTCC", "PBM E-score of 8-mer": "-0.155 ± 0.013"},
      {"sequence": "ATCCTACC", "PBM E-score of 8-mer": "-0.141 ± 0.013"},
      {"sequence": "CTCGCAGA", "PBM E-score of 8-mer": "0.0495 ± 0.024"},
      {"sequence": "AGCCGGTG", "PBM E-score of 8-mer": "-0.0142 ± 0.0014"},
      {"sequence": "GAGGGTAC", "PBM E-score of 8-mer": "-0.142 ± 0.018"},
      {"sequence": "AGGTGATC", "PBM E-score of 8-mer": "0.116 ± 0.085"},
      {"sequence": "ACGTCCAT", "PBM E-score of 8-mer": "-0.0423 ± 0.096"},
      {"sequence": "GGAATTGA", "PBM E-score of 8-mer": "-0.164 ± 0.058"},
      {"sequence": "ACTAATGA", "PBM E-score of 8-mer": "-0.119 ± 0.0051"},
      {"sequence": "TCCGCTCA", "PBM E-score of 8-mer": "-0.134 ± 0.0034"},
      {"sequence": "ATTGAAAC", "PBM E-score of 8-mer": "-0.166 ± 0.016"},
      {"sequence": "GGGTTACA", "PBM E-score of 8-mer": "-0.0798 ± 0.0058"},
      {"sequence": "ACGTATTA", "PBM E-score of 8-mer": "0.00743 ± 0.069"},
      {"sequence": "CACTCGTA", "PBM E-score of 8-mer": "0.0708 ± 0.022"},
      {"sequence": "GCACCTTA", "PBM E-score of 8-mer": "0.404 ± 0.026"},
      {"sequence": "CAGGATTC", "PBM E-score of 8-mer": "-0.0775 ± 0.06"},
      {"sequence": "AGCGCAGG", "PBM E-score of 8-mer": "-0.112 ± 0.082"},
      {"sequence": "CGATCACG", "PBM E-score of 8-mer": "0.221 ± 0.037"},
      {"sequence": "CGGCCACG", "PBM E-score of 8-mer": "-0.0155 ± 0.052"},
      {"sequence": "CGCGAAGC", "PBM E-score of 8-mer": "0.324 ± 0.033"},
      {"sequence": "ACAGTCTC", "PBM E-score of 8-mer": "0.102 ± 0.041"},
      {"sequence": "CGGACTAC", "PBM E-score of 8-mer": "-0.195 ± 0.018"},
      {"sequence": "CAGCAGGC", "PBM E-score of 8-mer": "-0.0589 ± 0.024"},
      {"sequence": "ACTTAGAG", "PBM E-score of 8-mer": "-0.0957 ± 0.015"},
      {"sequence": "GTAGTCGA", "PBM E-score of 8-mer": "-0.0817 ± 0.051"},
      {"sequence": "AGTACATG", "PBM E-score of 8-mer": "-0.06753 ± 0.00033"},
      {"sequence": "ACCTGACA", "PBM E-score of 8-mer": "0.251 ± 0.016"},
      {"sequence": "GGGTGTAC", "PBM E-score of 8-mer": "-0.0335 ± 0.078"},
      {"sequence": "ATTACTGG", "PBM E-score of 8-mer": "-0.152 ± 0.022"}
    ]}
  ]
}
